This note sets out measurements from the supplement of paper PMC10126150.

Sequences with one replicate were seen in a single cluster, so their values are uncertain.

For the series, the system named is ATP. The experiment in a line: switch fluorescence ratio, 500 uM ATP over buffer (Cy3 cluster intensity, sum of 5 cycles each) (fold (ratio)); higher = stronger signal-on switching upon ATP binding; sequences stand for … in TCGTCGGCAGCGTCAGATGTGTATAAGAGACAGTTTTTTTTTTTTTTTTTTTTTTTTT…TC. The following applies: aptamer strand: ATP DNA aptamer (quencher-CACCTGGGGGAGTATTGCGGAGGAAGG + anchor), 100 nM annealed; ATP concentration: 500 uM; one replicate. Put shortly: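 Per cluster, summed Cy3 intensity from the target cycles was divided by that from the buffer cycles to give the fluorescence ratio, then averaged per switch-domain sequence. Clusters outside 100-1000 RFU were excluded. The Cy3-labelled switching-strand clusters, on a modified Illumina MiSeq flow-cell, were annealed to 100 nM quencher-labelled ATP aptamer and imaged in selection buffer, then after 15 min with 500 uM ATP at 22 °C, for five cycles with NaOH stripping and re-annealing between them.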
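Note: ATP exposure 15 min at 22 °C before imaging.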

As for ATGAGGAGGC, the switch fluorescence ratio came out at 1.02.

Take CACGACTCTG: the switch fluorescence ratio turned out to be 0.987.

For the sequence CGGTTACTCG, the switch fluorescence ratio is 1.03.

For the sequence TCTCAAAAC, the switch fluorescence ratio amounted to 1.09.

Turning to TATCATGCGG, the switch fluorescence ratio came out at 0.978.

As to TAGGATCACA, the switch fluorescence ratio is 0.959.

For the sequence GCTGGTTCCA, the switch fluorescence ratio was found to be 0.997.

For CGCATTTGTT, the switch fluorescence ratio stood at 1.07.

On to GTGGTCCCGA, for which the switch fluorescence ratio stood at 1.06.

Take GACTCACTGT: the switch fluorescence ratio stood at 1.22.

On to TTACCGCGAG, for which the switch fluorescence ratio is 0.994.

Take CATACGGAAA: the switch fluorescence ratio is 1.08.

Consider TTCATCAGCC, for which the switch fluorescence ratio was determined as 1.22.

For TAGGAGAATT, the switch fluorescence ratio was 0.977.

As for CTTGCCCAGC, the switch fluorescence ratio worked out at 1.05.

On to TCTAAAAAGC, for which the switch fluorescence ratio was 0.992.

With GTGCACCTCC, the switch fluorescence ratio stood at 1.14.

Turning to TAAAAGTGAC, the switch fluorescence ratio amounted to 1.08.

Take GACACGGCAG: the switch fluorescence ratio was 0.978.

For AGGGACCGGT, the switch fluorescence ratio is 0.96.

On to GAGGCAATTA, for which the switch fluorescence ratio came to 4.53.

As to GGCGTGAGAC, the switch fluorescence ratio worked out at 1.11.

For the sequence GGTCAACCGG, the switch fluorescence ratio amounted to 0.986.

With GAGGTTTCTG, the switch fluorescence ratio came to 1.05.

Consider TAAGGATCTG, for which the switch fluorescence ratio was found to be 1.02.

For the sequence AATCGAGAAG, the switch fluorescence ratio came out at 0.98.

As to GTCGCGGATT, the switch fluorescence ratio amounted to 0.997.

Turning to GAGTGACGCC, the switch fluorescence ratio was found to be 1.03.

Take TCTGTCAATA: the switch fluorescence ratio turned out to be 1.09.

TGTGACCTCT: the switch fluorescence ratio amounted to 1.02.

Turning to AATGTCTTCC, the switch fluorescence ratio came out at 1.84.

For the sequence TACACACGTA, the switch fluorescence ratio was determined as 1.33.

As to TTGACTTACC, the switch fluorescence ratio was found to be 1.17.

On to TTTGTTACTC, for which the switch fluorescence ratio was 0.964.

Regarding AAGGGATGTG, the switch fluorescence ratio is 1.01.

TATGCGAAC: the switch fluorescence ratio was 1.09.

For the sequence CAGAAGGCTT, the switch fluorescence ratio was 0.963.

With TTATTTGAAG, the switch fluorescence ratio worked out at 0.966.

On to TGAAACGACT, for which the switch fluorescence ratio is 0.993.

In the case of ACTCATCAG, the switch fluorescence ratio was 1.02.

For GACTACCTGC, the switch fluorescence ratio is 1.02.

Turning to ATTTTGGC, the switch fluorescence ratio stood at 1.3.

As for CTTATTTGAG, the switch fluorescence ratio is 0.99.

Regarding CAGTTCTAAT, the switch fluorescence ratio came out at 1.01.

TGTAAAATGA: the switch fluorescence ratio was found to be 1.01.

AAACGTAC: the switch fluorescence ratio is 1.92.

Take GCTCTCTAGT: the switch fluorescence ratio amounted to 0.987.

For the sequence GGATATTTTG, the switch fluorescence ratio came out at 0.973.

As for AAAGACGCGA, the switch fluorescence ratio stood at 1.17.

For CGACGGTCTG, the switch fluorescence ratio worked out at 1.01.

ACTTACCTGC: the switch fluorescence ratio worked out at 1.27.

Take GGTCAGGGCA: the switch fluorescence ratio stood at 1.

On to GTTTATTTGA, for which the switch fluorescence ratio was found to be 0.976.

Consider ACGATGAGAT, for which the switch fluorescence ratio is 1.05.

Turning to ATCCCCCTTC, the switch fluorescence ratio turned out to be 1.07.

In the case of ATTAACATGT, the switch fluorescence ratio came to 0.956.

Turning to AGCGGGCTCT, the switch fluorescence ratio was found to be 0.949.

CGGGATAAC: the switch fluorescence ratio is 1.2.

TGGTCGCCTT: the switch fluorescence ratio was determined as 0.996.

As to GGTGAAGTTA, the switch fluorescence ratio was 0.961.

On to ACTTGATTGA, for which the switch fluorescence ratio was determined as 0.98.

On to CATGTCCGGC, for which the switch fluorescence ratio was 0.966.

For ATATGGCCGG, the switch fluorescence ratio worked out at 0.964.

Take AACCACTGAA: the switch fluorescence ratio is 1.04.

Take CGATCTCCTA: the switch fluorescence ratio came to 0.985.

CCCTTCGCGG: the switch fluorescence ratio amounted to 5.05.

Regarding GAGCCGCCGG, the switch fluorescence ratio came to 0.978.

As for AGGTCTATAT, the switch fluorescence ratio is 0.972.

For the sequence CGGTTGGAG, the switch fluorescence ratio amounted to 0.96.

On to TAATCATAGG, for which the switch fluorescence ratio came out at 1.01.

Take TGTCTTATGC: the switch fluorescence ratio turned out to be 0.993.

For the sequence AAACTCGAGA, the switch fluorescence ratio turned out to be 0.969.

As to ATCTGACCGT, the switch fluorescence ratio came to 1.02.

Regarding ATTGTCGCTT, the switch fluorescence ratio came out at 1.01.

ACGGAACTGT: the switch fluorescence ratio was determined as 1.42.

On to CCTTGTCTAC, for which the switch fluorescence ratio came out at 2.17.

As for CGGTTGATG, the switch fluorescence ratio was 0.961.

Turning to GATAATTGTG, the switch fluorescence ratio was found to be 0.944.

As for CACAGGCGGG, the switch fluorescence ratio was determined as 1.01.

On to GCAAGCGATA, for which the switch fluorescence ratio came to 1.53.

For the sequence CCTATAATA, the switch fluorescence ratio amounted to 0.997.

With GAGTGCAAAG, the switch fluorescence ratio came out at 1.

With ACGCTTATGC, the switch fluorescence ratio was found to be 1.84.

With ACCCAGTAT, the switch fluorescence ratio came to 1.05.

GCATGTATGC: the switch fluorescence ratio was determined as 1.02.

Take GGAGCATGTT: the switch fluorescence ratio stood at 1.15.

AACTTAATCT: the switch fluorescence ratio stood at 0.964.

For the sequence GAAATAGTTA, the switch fluorescence ratio was 0.993.

Regarding GTGTCGAGCT, the switch fluorescence ratio was found to be 0.977.

In the case of GCCGTCAAGA, the switch fluorescence ratio amounted to 1.03.

As to GCTCCCTTGG, the switch fluorescence ratio amounted to 1.36.

In the case of TGGCCGACGA, the switch fluorescence ratio is 0.994.

Take CGACAAACAG: the switch fluorescence ratio was determined as 1.02.

TCCCCCCCAC: the switch fluorescence ratio amounted to 1.58.

Turning to CTGTTTCATA, the switch fluorescence ratio is 0.989.

As to TTCAGTGGT, the switch fluorescence ratio turned out to be 0.981.

For CACTTAAAGC, the switch fluorescence ratio stood at 1.

With CCACCGGTCT, the switch fluorescence ratio turned out to be 1.12.

On to GCTATGTGA, for which the switch fluorescence ratio turned out to be 0.975.

For CGTTTAACTG, the switch fluorescence ratio is 1.13.

Take TGGAGCACGT: the switch fluorescence ratio stood at 1.05.

As for TAGGTGATAA, the switch fluorescence ratio was 1.03.

With ATACTGATCG, the switch fluorescence ratio was found to be 1.06.

Turning to CACGGAGGCA, the switch fluorescence ratio worked out at 1.02.

Regarding TTGCCATATC, the switch fluorescence ratio worked out at 1.05.

With ACGGACGGCT, the switch fluorescence ratio worked out at 1.14.

TCGGGGGAGT: the switch fluorescence ratio turned out to be 0.966.

Take TCTCCAAAGG: the switch fluorescence ratio is 1.08.

Take CGTAACCGGG: the switch fluorescence ratio worked out at 0.986.

Turning to TTGTCTGGGT, the switch fluorescence ratio was 0.963.

On to CAAGTAAAAT, for which the switch fluorescence ratio stood at 1.02.

For CAGGTTGCGG, the switch fluorescence ratio was found to be 0.952.

For the sequence TCCTATCCG, the switch fluorescence ratio was determined as 1.09.

With CTGAAAATTA, the switch fluorescence ratio is 0.969.

For CATGTATACC, the switch fluorescence ratio worked out at 1.01.

In the case of ATGCATAATC, the switch fluorescence ratio was 0.998.

In the case of TCATTGCG, the switch fluorescence ratio is 1.

Consider AAGGGGTTC, for which the switch fluorescence ratio was 0.963.

Consider AGTATCGGGT, for which the switch fluorescence ratio worked out at 1.01.

Consider GTCAAAACG, for which the switch fluorescence ratio is 0.976.
